Measured values: ChEMBL document CHEMBL5308541, “MAIP: An Open-Source Tool to Enrich High-Throughput Screening Output and Identify Novel, Druglike Molecules with Antimalarial Activity” (ACS Med Chem Lett, 2023)
In all, about 150,000 compounds went through this assay and about 540 (0.36%) showed an effect of 50% or more. This is one part of the list.

system: Plasmodium falciparum; assay: Primary screen in NF54 nanoGlo assay, in single point, at 2uM, 72h; a lower Z score goes with more inhibition; assay type: functional, Erythrocyte; conditions: timepoint 72 hour

Row | SMILES | % Inhibition | Z score
1 | Cc1ncc(CNC(=O)c2ccc(C)c(C)c2Cl)o1 | 0% | -0.04
2 | CC(=O)N1CCN(Cc2cccc(-c3ccc4c(c3)NC(=O)NC4)c2)CC1 | 3% | -0.73
3 | Cc1ccc(OC2CCN(CCCN3CCN(c4ccccc4)CC3)CC2)nc1 | -2% | 0.26
4 | COC(=O)c1cn(C[C@H](c2ccc(N(C)C)cc2)c2c[nH]c3ccccc23)cc2c(O)nnc1-2 | -7% | 1.13
5 | Fc1ccc(N2CC[C@H](N3CCCC4(CCNCC4)C3)C2)cc1 | -10% | 1.53
6 | OC1CCN(C[C@H](O)COc2cccc(CN3CCC4(CCO4)CC3)c2)CC1 | -2% | 0.36
7 | CN1C(=O)C2CCCC1CN(C/C=C/c1ccccc1)C2 (stereo not given) | 3% | -0.39
8 | CC(C)C[C@@H](CNC(=O)Nc1ccc(N2CCCN(C)CC2)c(F)c1)N1CCOCC1 | -4% | 0.63
9 | O=C(c1ccc(NC[C@H](c2ccccc2)c2c[nH]c3ccccc23)nc1)N1CCCC1 | -11% | 1.69
10 | CC(C)N1CCC(N(CCNC(=O)c2ccncn2)C2CCOCC2)CC1 | -15% | 2.72
11 | CNc1ccnc(N(C)CCN2CCCC[C@@H]2C)n1 | 1% | -0.24
12 | CC1CCN(C2CCC(Nc3ncnc4c3ncn4C3CC3)CC2)CC1 (stereo not given) | -4% | 0.79
13 | C[C@@H](CN1CCN(C)CC1)NCCc1nc(-c2ccccc2)cs1 | 3% | -0.48
14 | COc1cccc(-n2cc([C@H](C)Nc3ncnc4cc[nH]c34)cn2)c1 | 7% | -1.22
15 | COC(=O)N1CCC(NC2CCN(CCC(F)(F)F)CC2)CC1 | 1% | -0.25
16 | COc1ccnc(NCc2cccc(-c3ncc[nH]3)c2)n1 | 1% | -0.21
17 | CC(C)c1cc(C(F)(F)F)nc(N2CCN(c3ncnc4cc[nH]c34)CC2)n1 | 2% | -0.43
18 | CCN(CC)c1ccc(-c2noc(CN3CCN(C4CCCCC4)CC3)n2)cn1 | -7% | 0.99
19 | CC1(C(=O)NC2CCN(Cc3ccc(F)cc3)C2=O)CCCOC1 (stereo not given) | 6% | -1.1
20 | Cc1nc(C(=O)NCc2cc3ccccc3o2)cs1 | 6% | -1.15
21 | Cc1cccc(-c2cncc(C(=O)NC[C@H]3C[C@@H](N(C)C)C3)c2)c1 | 12% | -2.61
22 | CCN1CCC[C@@H]1CNC(=O)c1ccc(-c2cnn3cccnc23)cc1 | -6% | 1

Row | SMILES | % Inhibition | Z score
23 | CCN(CCN1CCCCCC1)C(=O)NCCNc1ccncc1C | -11% | 2.32
24 | COCCOc1ccc(N2C(=O)N[C@](C)(c3ccc(OC)cc3)C2=O)cn1 | -10% | 1.93
25 | CC(c1ccccc1F)N1CCCC(NC(=O)N2CCC(O)C(F)(F)C2)C1=O (stereo not given) | -11% | 1.67
26 | CN1CCN(c2cc(NC[C@H](O)c3ccc(Cl)c(F)c3)ncn2)CC1=O | -2% | 0.45
27 | Cc1nc2n(n1)CCN(C(=O)CCc1c(-c3ccccc3)[nH]c3ccc(F)cc13)C2 | 13% | -2.67
28 | O=C([C@@H]1Cc2cc(Cl)ccc2N1)N1CCC(N2CCC(O)CC2)CC1 | 3% | -0.51
29 | COc1cccc(CNc2nccc3occc23)c1 | 3% | -0.52
30 | CN(CCCN1CCCCCC1)C(=O)c1cccc(-c2cnccc2N)c1 | -6% | 1.01
31 | Cc1nsc(C)c1C(=O)NC1CCC(=O)N(C)C1c1ccnn1C (stereo not given) | -4% | 0.73
32 | Fc1cc2nc(-c3cnc(N4CCOCC4)nc3)[nH]c2cc1Br | -4% | 0.61
33 | CN1CCC2(CC1)CN(c1ncnc3cc[nH]c13)CCO2 | -4% | 0.6
34 | Cc1cc(C)nc(N2CC(Cn3nc(-c4ccncc4)ccc3=O)C2)n1 | -6% | 1.22
35 | C(=Cc1ccc2ccccc2n1)c1ccc(N2CCCCC2)cc1 | -1% | 0.13
36 | O=C(Nc1cnccc1N1CCOCC1)c1ccn(C2CCCC2)n1 | 14% | -2.38
37 | FC1(F)CCN(CCN2C[C@@H]3CN(Cc4ccccc4)C[C@@H]3C2)CC1 | 17% | -3.59
38 | CN1CCN(C[C@H]2CCCN(S(=O)(=O)c3ccc(-c4ccccc4)cc3)C2)CC1 | -5% | 1.04
39 | C#CCOc1ccc(N(C)C(=O)CC2(O)CCCC2)cc1 | -8% | 1.53
40 | CN1C[C@@H](CN2CCCN(C3CCCCC3)CC2)CCC1=O | -5% | 0.77
41 | O=C(Nc1ccc(NCC2CCCC2)cc1)c1cnc2c(cnn2C2CCCC2)c1 | 3% | -0.58
42 | O=C(c1ccc2noc(-c3ccccc3)c2c1)N1CC(Nc2ccncn2)C1 | 6% | -0.98
43 | CC(C)C[C@H](C)N(C(=O)c1nc(N2CCCC2)ncc1Cl)c1ccc2[nH]ccc2c1 | 0% | -0.05
44 | O=C(NC1CNCCC1O)c1cc2c(Cl)cccc2[nH]1 (stereo not given) | -3% | 0.71

Row | SMILES | % Inhibition | Z score
45 | O=C([C@H]1CCCN(c2cnccn2)C1)N1CCc2[nH]c3ccc(Br)cc3c2C1 | 5% | -0.82
46 | O=c1cnnc(NC2CCCCCCCCCCC2)n1C1CCCCCCCCCCC1 | 5% | -1.08
47 | Nc1nc(NC2CCN(Cc3ccc(F)cc3)CC2)cc(-n2cccn2)n1 | -5% | 0.84
48 | CC[C@H]1CCCCN1Cc1c(C)nc2ccc(N(CC)CC)cc2c1O | -3% | 0.5
49 | O=S(=O)(Oc1ccc(Cl)c2cccnc12)N1CCCCC1 | -9% | 1.32
50 | CN1CCN(C[C@H]2CCCN(Cc3ccc(-n4ccnc4)nc3)C2)CC1 | 16% | -2.8
51 | Cc1c[nH]c2ncc(-c3cnc(N4CCC(O)CC4)nc3)cc12 | -7% | 1.48
52 | Nc1nc(NCCO)cc(N2CC(CO)CC(CN3CCCC3)C2)n1 (stereo not given) | 1% | -0.09
53 | COCC1(CNC(=O)C2OCC(=O)N(C3CC3)C2c2cccnc2)CCC1 (stereo not given) | 10% | -2.19
54 | CN(Cc1ccnc2ccccc12)C[C@H]1CCN(c2ccccc2)C1 | -12% | 1.86
55 | COc1ccc2cc(-c3c(-c4ccccc4)ncn3C[C@H](O)CO)ccc2c1 | -7% | 1.44
56 | FC(F)Oc1ccc(NC2CCN(C[C@H]3CCOC3)CC2)nc1 | -11% | 2.13
57 | Cc1nc(N2CCC(N3CCCN(c4ccccc4)CC3)CC2)nc2ccc(F)cc12 | -12% | 2.03
58 | c1cnc(NCc2ccc3occc3c2)nc1 | -2% | 0.33
59 | O=S(=O)(c1cc(C(F)(F)F)ccc1C(F)(F)F)N1CCC(c2c[nH]c3ccc(F)cc23)CC1 | 11% | -1.91
60 | CN1CCN(c2ccc(NCc3c[nH]nc3-c3cccnc3)cn2)CC1 | -15% | 2.56
61 | Cc1nccn1-c1ccc(CNc2cc(C3CC(N)C3)nc(N)n2)cc1 (stereo not given) | -1% | 0.13
62 | Nc1ccncc1-c1cccc(C(=O)NC[C@H]2CCN(C3CCCC3)C2)c1 | -6% | 1.28
63 | O=C(NCC(F)(F)C(F)F)c1cccc(Br)c1F | -3% | 0.67
64 | COc1cc(-c2nc3sccn3c2Nc2cccc(C)c2)ccc1O | -7% | 1.29
65 | CC(C)CN1CCC(CNc2nnc(CN)o2)CC1 | -4% | 0.65
66 | O=C(CCNCc1ccc(-c2ccncc2)cc1F)N1CCCCC1 | -6% | 0.99

Row | SMILES | % Inhibition | Z score
67 | COc1ccc(-c2ccno2)cc1S(=O)(=O)N1CCCN(c2ccncc2C)CC1 | -3% | 0.52
68 | Fc1cncc(F)c1CN1CCC(Oc2cnccn2)CC1 | 1% | -0.19
69 | Cc1nonc1CN1CC[C@@H](N(C)CCO)[C@H]1C | 2% | -0.37
70 | Cc1ccc(N2CCOCC2)cc1NCc1cnc(N2CCN(C)CC2)nc1 | -16% | 2.49
71 | N#Cc1ccnc(N2CC3(CCC3)C2C2CCCO2)n1 (stereo not given) | -7% | 1.22
72 | C#CCN1CCC(NC[C@H]2CCCN(CCOC)C2)CC1 | -15% | 2.51
73 | CCN(C)CC(O)CN1CCC(Oc2cccnc2N2CCCC2)C1 (stereo not given) | -5% | 1.05
74 | CN(C)c1nc2ccc(OCCN3CCOCC3)cc2s1 | -4% | 0.7
75 | Cc1nc(N)cc(N2CCN(CCN3CCCC3)CC2)n1 | -5% | 0.72
76 | CC[C@]1(C(N)=O)CCCN(Cc2c[nH]c3ccccc23)C1 | -2% | 0.43
77 | Nc1nc(N2CCC(n3cc(-c4ccccc4)nn3)CC2)c2cn[nH]c2n1 | -10% | 1.77
78 | Cc1c(-c2cc(C(=O)NC3CCN(c4cnccn4)CC3)n[nH]2)cnn1C | 12% | -2.66
79 | CC(C)(C)C(=O)Nc1ccc(NC(=O)c2ccc3[nH]ccc3c2)cc1Cl | 3% | -0.48
80 | Cc1[nH]nc2ncc(NC(=O)N[C@H]3CCN(c4ccccn4)C3)cc12 | 3% | -0.46
81 | O=C1OCCCN1CCNc1nccc(N2CCC(O)CC2)n1 | 8% | -1.17
82 | CCCc1cc(N2CCN(C3CCN(CC(C)C)CC3)CC2)nc(C)n1 | -4% | 0.7
83 | Nc1nc(NCc2cc(F)c(F)cc2F)c2cn[nH]c2n1 | -9% | 1.63
84 | CN1CCN(CC2(CNC(=O)c3cccc([C@H]4CCCNC4)c3)CC2)CC1 | 2% | -0.52
85 | Cc1cc(CNC2CCN(C)CC2)ccc1Br | 4% | -0.66
